Assay results taken from the supplement of paper PMC4166925.
± gives the standard deviation of the averaged measurements. The full ranking holds about 33,000 sequences; the median of “E-score (dimensionless, -0.5 to 0.5)” is about -0.049, and the highest 2% start at about 0.37. The list shows a part of the results.

test system: T1, PmTbr T-box DNA-binding domain (GST fusion); test: PBM E-score of 8-mer (E-score (dimensionless, -0.5 to 0.5)); Tbr is Tbrain of the sea star Patiria miniata (Pm) or the sea urchin Strongylocentrotus purpuratus (Sp); higher = stronger binding preference; most listed sequences are background and not binding sites; settings: the construct has about 5 more residues each side
T1 sequence: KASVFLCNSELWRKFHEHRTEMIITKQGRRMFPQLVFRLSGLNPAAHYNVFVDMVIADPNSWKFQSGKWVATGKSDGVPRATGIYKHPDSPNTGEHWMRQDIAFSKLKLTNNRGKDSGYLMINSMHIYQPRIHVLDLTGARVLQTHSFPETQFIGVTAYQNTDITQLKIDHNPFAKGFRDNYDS
In short: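 Primer extension turned Universal Agilent oligonucleotide arrays double-stranded. They were incubated with 200 nM protein in PBS (pH 7.5); the protein was a GST-fused Tbr T-box DNA-binding domain expressed in BL21 E. coli at 20 °C and purified on glutathione. Every ungapped 8-mer was scored from the scanned, quantified probe intensities, and the Universal PBM Analysis Suite gave each an enrichment E-score averaged over duplicate arrays.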

Sequence | PBM E-score of 8-mer
GTTGGCAA | 0.276 ± 0.03
AGATCAAG | -0.285 ± 0.047
AAGGTTCG | -0.0528 ± 0.047
GCCTAACC | -0.288 ± 0.061
TATGTGAA | 0.11 ± 0.1
CAAAGTCC | -0.084 ± 0.003
AAGAGTGC | 0.0437 ± 0.026
ACAAGTAT | 0.112 ± 0.028
TCCCGAAA | -0.153 ± 0.024
AATCGCCA | 0.166 ± 0.016
AGTGGTAT | 0.056 ± 0.014
TCAAGGAA | -0.191 ± 0.017
ATGCTCCG | -0.0913 ± 0.00038
ACCACCCA | -0.122 ± 0.11
AGACTTAC | -0.184 ± 0.053
AATTTGGT | -0.0576 ± 0.041
ACAGGTAA | 0.0959 ± 0.047
AATGGATG | -0.0722 ± 0.11
AATGTTTC | -0.221 ± 0.017
ACACAACA | 0.21 ± 0.01
GTTCTGGA | -0.117 ± 0.11
GATATAAC | 0.115 ± 0.0035
GTGGGGGA | 0.0777 ± 0.08
CTTCCCAA | 0.157 ± 0.03
ATCACCCG | 0.194 ± 0.02

Sequence | PBM E-score of 8-mer
CGATTGGC | 0.0475 ± 0.026
CTCCAGCC | -0.247 ± 0.00034
CTCGTCCC | -0.303 ± 0.016
ATTATTTG | -0.0902 ± 0.057
ACCTTTCG | 0.171 ± 0.008
GAGGCTGA | -0.152 ± 0.01
ATATCTCA | 0.0934 ± 0.046
GGCGAGTA | -0.019 ± 0.013
GAGTCCGA | -0.228 ± 0.032
GCCTAAGA | -0.135 ± 0.042
GTGACTAA | 0.224 ± 0.02
ACCCACGA | 0.042 ± 0.12
TACGAGTA | -0.183 ± 0.0048
TCTCCTCA | -0.0737 ± 0.037
AAGTAAGC | 0.0712 ± 0.06
CCGAGGTC | -0.0467 ± 0.058
ATCCTTAA | -0.266 ± 0.031
GGAGTCTA | -0.318 ± 0.014
TTGACCAA | -0.127 ± 0.099
ACAACCTA | 0.0189 ± 0.02
ACATGGCC | -0.15 ± 0.062
CGAAGGAG | -0.0485 ± 0.017
ACGAGTCG | 0.143 ± 0.015
CGTAACAA | 0.00875 ± 0.0017
ATAAACTA | -0.107 ± 0.0083

Sequence | PBM E-score of 8-mer
ACGTCCGC | 0.142 ± 0.043
ACTCGAAA | -0.00348 ± 0.018
TACATCTA | -0.0798 ± 0.087
GAGAGACC | -0.119 ± 0.04
ACAACCGT | 0.102 ± 0.02
GTCTCTGA | -0.238 ± 0.017
CGCTTTAA | -0.165 ± 0.076
AATGTCAC | 0.329 ± 0.034
ATTCTGTC | 0.0857 ± 0.08
ACATAGCT | -0.0291 ± 0.082
GTTGTCAA | 0.3528 ± 0.0033
CCCGGTCA | -0.0613 ± 0.056
GCACATGA | 0.0847 ± 0.099
GGAATACC | -0.15 ± 0.066
AGAAAACC | -0.00752 ± 0.017
GCTATTAA | 0.158 ± 0.051
TCACTTAA | 0.241 ± 0.022
ATATTGAC | 0.103 ± 0.015
AAGCCCCT | -0.25 ± 0.033
ACCATTAG | 0.0378 ± 0.1
GTAATACA | -0.163 ± 0.0071
CGACGTTA | -0.0414 ± 0.035
ACTACGGC | 0.0176 ± 0.0086
CAAGCGGC | 0.03 ± 0.015
GACGCGGC | 0.0886 ± 0.056

Sequence | PBM E-score of 8-mer
ACTTGACA | 0.349 ± 0.0048
CTCTTTAC | -0.09 ± 0.098
CACTCTTA | 0.193 ± 0.057
CTTGAAAC | 0.0357 ± 0.059
GCCCGGGC | -0.124 ± 0.051
GCGTGTCA | 0.276 ± 0.034
ACTCCAGA | -0.0523 ± 0.079
CTTCGACA | 0.164 ± 0.067
AGAACGAT | -0.27 ± 0.068
ACTAGTAG | 0.059 ± 0.1
ATGCGCAC | -0.0585 ± 0.018
CGGAATAC | 0.00666 ± 0.033
ATCGTACA | -0.0228 ± 0.034
AGGTCTCA | -0.0961 ± 0.054
CATCCTAG | -0.0222 ± 0.02
AGGAAGAG | -0.37 ± 0.021
ACACTCTA | 0.279 ± 0.016
ACGGAGAG | -0.13 ± 0.058
TCCTCACA | 0.3327 ± 0.0011
TACTAAAA | -0.025 ± 0.085
ACCCGTCT | 0.00649 ± 0.036
AAATGTCA | 0.111 ± 0.0049
GAGAGTGA | 0.212 ± 0.033
CCGAACGA | -0.0621 ± 0.037
GGGAAACA | 0.0209 ± 0.029

Sequence | PBM E-score of 8-mer
AATGTATG | -0.194 ± 0.021
ATTTTTTA | -0.175 ± 0.11
AGCCCGCG | -0.183 ± 0.056
TGTCGGAA | 0.195 ± 0.027
GATCGCCA | 0.127 ± 0.042
CATCCATG | -0.0998 ± 0.05
GACCGGAA | -0.129 ± 0.022
CAAACGAC | -0.00553 ± 0.072
AGGGCGAA | -0.0232 ± 0.096
AAAGCGTG | 0.2812 ± 0.0023
CCTGAGGC | -0.0326 ± 0.054
CCAGCCCA | -0.295 ± 0.028
CGCTTTAC | -0.134 ± 0.0088
AACGGGGA | 0.0221 ± 0.059
GCCAAGGA | -0.242 ± 0.0082
CGTGTTTA | 0.0204 ± 0.033
CGCGGACA | 0.0131 ± 0.015
GCCTGCGA | 0.294 ± 0.0096
TCATCCAA | -0.0297 ± 0.06
AATGAACT | -0.231 ± 0.015
GCAATTGA | 0.0291 ± 0.04
CTGTTAGC | 0.291 ± 0.034
GCGGGAGA | -0.0237 ± 0.01
ACTAAATC | -0.134 ± 0.049
CACACGGC | 0.0461 ± 0.026

Sequence | PBM E-score of 8-mer
CAGTATAG | -0.0221 ± 0.0096
AAAGATGA | -0.156 ± 0.008
AGATTGAG | 0.0167 ± 0.036
GGAAGTGA | 0.297 ± 0.0082
CAATCACC | 0.205 ± 0.013
AAGATGAC | 0.0813 ± 0.032
CGCGCGCC | 0.153 ± 0.017
CAAAACGC | -0.1279 ± 0.00033
ACAGAGGC | 0.0769 ± 0.02
ATAAGTAC | -0.184 ± 0.12
CCAAGGCG | 0.202 ± 0.0084
ATTAAGGG | -0.168 ± 0.046
GACACCGC | 0.307 ± 0.035
CCGCAGAC | -0.175 ± 0.012
CGTTTTTC | -0.0244 ± 0.059
AAGAAGGA | -0.0963 ± 0.055
TGAGTGCA | -0.197 ± 0.048
GAGTCAAC | 0.0408 ± 0.02
AAGGATAT | -0.247 ± 0.025
ACACCGCA | 0.183 ± 0.081
CCCGCAAG | -0.179 ± 0.0094
AATTAGGA | 0.0147 ± 0.042
AATTTTTA | -0.104 ± 0.086
AACACCCG | 0.428 ± 0.0098
ACACGTAC | 0.332 ± 0.016

Sequence | PBM E-score of 8-mer
CAACGGTC | -0.0397 ± 0.046
AGAGGCGA | 0.183 ± 0.043
AGAGGCAA | -0.0848 ± 0.022
ACCTTCTA | 0.0294 ± 0.074
GCCCCATA | -0.0424 ± 0.084
GAGCAATC | -0.207 ± 0.01
GGAGGCCA | -0.305 ± 0.077
CCTACGCG | 0.17 ± 0.013
AGTGCTCG | 0.0353 ± 0.048
GCTAGGAA | -0.064 ± 0.027
CCAACAGA | -0.122 ± 0.055
CACCTACC | 0.413 ± 0.015
CAGAAAAA | -0.206 ± 0.11
CATTCTAG | -0.158 ± 0.059
ATCTCGAG | -0.0269 ± 0.052
GGGCTAAA | -0.167 ± 0.021
AGCGGGGA | -0.0409 ± 0.022
CGGGTTTA | -0.0688 ± 0.02
ACACCGCT | 0.203 ± 0.016
CTCGTGAC | 0.19 ± 0.061
ACGACCAA | -0.151 ± 0.027
GGACCTAC | -0.167 ± 0.037
